About 14,000 (4.5%) of roughly 310,000 compounds showed an effect of 50% or more. Effects have a minus sign here. The list shows a part of the results.
The compounds below were run against human ether-à-go-go-related gene (hERG) potassium channel (human, UniProt Q12809) (assay: primary screen, population patch clamp on CHO cells stably expressing hERG).
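Note: peak tail current of the secondary pulse compared with the same well before compound.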

Chain of human ether-à-go-go-related gene (hERG) potassium channel (Q12809 whole entry, looked up): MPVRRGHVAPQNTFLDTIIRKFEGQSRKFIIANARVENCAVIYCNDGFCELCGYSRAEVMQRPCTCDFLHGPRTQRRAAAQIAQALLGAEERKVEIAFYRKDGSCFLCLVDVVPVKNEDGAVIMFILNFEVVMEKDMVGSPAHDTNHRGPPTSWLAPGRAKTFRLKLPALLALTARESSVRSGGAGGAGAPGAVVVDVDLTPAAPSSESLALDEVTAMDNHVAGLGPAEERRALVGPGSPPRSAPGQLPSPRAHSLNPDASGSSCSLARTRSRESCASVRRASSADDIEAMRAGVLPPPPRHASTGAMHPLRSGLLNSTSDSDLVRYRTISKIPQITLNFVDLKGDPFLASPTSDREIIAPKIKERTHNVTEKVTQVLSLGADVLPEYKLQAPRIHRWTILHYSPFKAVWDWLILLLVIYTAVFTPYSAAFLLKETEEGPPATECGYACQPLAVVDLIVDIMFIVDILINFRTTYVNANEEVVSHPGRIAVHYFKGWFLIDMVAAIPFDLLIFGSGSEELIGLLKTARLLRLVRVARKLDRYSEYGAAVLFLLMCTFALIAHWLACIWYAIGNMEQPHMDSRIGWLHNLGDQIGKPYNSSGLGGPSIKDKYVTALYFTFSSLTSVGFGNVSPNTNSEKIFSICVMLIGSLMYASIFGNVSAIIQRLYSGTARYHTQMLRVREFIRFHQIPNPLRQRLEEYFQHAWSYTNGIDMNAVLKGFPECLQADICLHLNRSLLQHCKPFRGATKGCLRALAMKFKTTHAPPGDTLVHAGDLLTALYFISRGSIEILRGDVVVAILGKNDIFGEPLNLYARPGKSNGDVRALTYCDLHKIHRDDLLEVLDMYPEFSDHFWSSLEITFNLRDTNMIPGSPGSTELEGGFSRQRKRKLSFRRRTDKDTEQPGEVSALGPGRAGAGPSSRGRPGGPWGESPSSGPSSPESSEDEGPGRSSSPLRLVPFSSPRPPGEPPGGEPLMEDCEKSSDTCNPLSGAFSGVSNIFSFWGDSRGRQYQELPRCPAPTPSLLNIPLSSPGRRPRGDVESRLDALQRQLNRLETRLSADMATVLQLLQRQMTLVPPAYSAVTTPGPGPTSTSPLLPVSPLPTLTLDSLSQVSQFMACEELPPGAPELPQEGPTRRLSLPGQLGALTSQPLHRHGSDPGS

Point of comparison: COc1ccccc1C(=O)NCCN=C1NS(=O)(=O)c2ccccc21, “hERG current change (%, negative = inhibition) at 10uM” value 10.4%. Against it:
- COc1ccc(NC(=O)c2ccc(S(=O)(=O)NCc3cccnc3)cc2)cc1 — lower, -17.8%
- CCCN1CCC(=O)N([C@H](CO)c2ccccc2)CC1 — lower, 9.36%
- CN1C2C=C(N(C(=O)c3ccc(Cl)cc3)c3ccccc3)CC1CC2.Cl (stereo not drawn) — lower, -74%
- Cc1nc(CS(=O)(=O)c2ccccn2)sc1C(=O)NNC(=O)c1ccccc1 — the same, 10.4%
- COCCNC(=O)CCC1CCN(Cc2cccc(Oc3ccccc3)c2)CC1 — lower, -55.3%
- COc1cc(/C=C2/C(=N)N3C=CSC3=NC2=O)ccc1OCCCOc1ccccc1C — lower, 6.31%
- COc1ccc(/C=C/C(=O)c2ccc(NS(=O)(=O)c3ccc(C)cc3)cc2)cc1O — lower, 1.89%
- CCCCNC(=NCc1cccc(C(F)(F)F)c1)Nc1ccccc1 — lower, -16.8%
- COc1cc2c(cc1NC(=O)Nc1cccc(C)c1)oc1ccccc12 — lower, 6.15%
- CCC(CC)C(=O)OCC(=O)Nc1cccc(S(=O)(=O)N(C)c2ccccc2)c1 — higher, 14.3%
- OCCN(Cc1ccccc1)CC1CC2C=CC1C2 (stereo not drawn) — lower, -14.6%
- O=C(Cn1cncn1)NCc1ccc(Cl)cc1 — lower, 7.07%
- Cc1ccc(C(C)C)cc1S(=O)(=O)NC1CC(C)(C)NC(C)(C)C1 — lower, -3.71%
- COc1ccc(/C=N/NC(=O)c2cccs2)c2ccccc12 — lower, 9.42%
- Cc1ccc(N2CCN(C(=O)N3CCOCC3)CC2)c(C)c1 — lower, 6.02%
- CN1C(=S)N(c2cccnc2)C(=O)/C1=C\c1ccc(C(C)(C)C)cc1 — lower, 5.97%
- COC(=O)N1CCc2c(sc(NC(=O)C3COc4ccccc4O3)c2C(N)=O)C1 (stereo not drawn) — lower, 2.44%
- O=C1OCc2ccc(NC(=O)C3CCCCC3)cc21 — lower, 2.51%
- Cc1ccccc1-c1nnc(SCCC(=O)N2CCOCC2)o1 — lower, -2.53%
- Cc1ccc2cc(C#N)c(N3CCCN(S(=O)(=O)c4ccccc4)CC3)nc2c1C — lower, 0.802%
- COc1ccc(N2C(=O)C(Cl)=C(N3CCCC3)C2=O)cc1 — higher, 13.9%
- Cc1ccc(F)cc1NC(=O)CN1CCN(c2ccccn2)CC1 — lower, -35.2%
- Cc1c(NC(=O)Nc2cccc(Cl)c2)c(=O)n(-c2ccccc2)n1C — higher, 11.4%
- COc1ccccc1N(Cc1ccccc1)S(=O)(=O)c1cccc(C(=O)NCC2CCCO2)c1 (stereo not drawn) — lower, -46.3%
- Cc1ccc(C)c(Cn2c(=O)n(C)c(=O)c3sccc32)c1 — lower, 7.39%
- O=C(O)/C=C\C(=O)O.c1cc(CN2CCCCC2)cc(OCCCNc2nc3ccccc3s2)c1 — lower, -46.6%
- CC(=O)N1CCN(C(=O)Cn2c(=O)oc3ccccc32)CC1 — lower, 5%
- O=C(CN1CCN(S(=O)(=O)c2ccc(F)cc2)CC1)NCC1(N2CCOCC2)CCCCC1 — lower, -18.6%
- Cc1nnc(SCC(=O)NCCN2C(=O)CSC2=O)s1 — lower, -6.67%
- CCOC(=O)C1=C(N)Oc2ccc3ccccc3c2C1c1cccc(O)c1 (stereo not drawn) — higher, 14.3%
- O=C(Nc1ccccc1)Nc1cccc2cccnc12 — lower, 1.04%
- NNC(=O)COc1cccc2cccnc12 — higher, 12.4%
- O=C(c1ccc2c(c1)C(=O)N(c1ccc(Cl)cc1)C2=O)N1CCN(c2ccccn2)CC1 — lower, 6.39%
- CN(C)c1ccc(/C=N/NC(=O)c2ccc(-n3cnnn3)cc2)cc1 — higher, 10.8%
- O=C1c2ccccc2S(=O)(=O)c2cc(C(=O)N3CCC(C(=O)N4CCCCC4)CC3)ccc21 — lower, 4.81%
- Cc1ccc(C(C(=O)NC2CCCC2)N(C(=O)c2csnn2)C2CCCC2)o1 (stereo not drawn) — lower, -4.91%
- COc1ccc(N2CCN(C(=O)Nc3cccc(C(F)(F)F)c3)CC2)cc1 — lower, -6.04%
- Cc1ccc(NC(=O)COC(=O)/C=C/c2cccs2)c(C)c1 — lower, -21.8%
- CC(=O)c1c(C)nc(C)nc1NC(=O)C(C)C — higher, 11%
- CC(=O)Nc1ccc(Nc2ncnc(N)c2[N+](=O)[O-])cc1 — higher, 12.6%
- COc1ccc(NC(=O)N2c3ccccc3CC2C)cc1OC (stereo not drawn) — lower, -5.01%
- CCCCOc1ccc(C(=O)Nc2ccc(C)cc2[N+](=O)[O-])cc1 — lower, 4.59%
- CC(C)c1ccc([N+](=O)[O-])cc1S(=O)(=O)N1CCN(C)CC1 — lower, 7.47%
- CCOc1ccc(Br)cc1CNc1ccc2c(c1)OCCO2 — higher, 21.9%
- CCOC(CCNC(=O)c1cn(-c2cccc(C)n2)cn1)OCC — lower, -0.276%
- O=C(N/N=C/c1ccc(Br)s1)c1ccccc1[N+](=O)[O-] — lower, 2.22%
- N#CC[C@H](c1ccccc1)N1CCN(Cc2ccccc2)CCC1=O — lower, -1.88%
- COc1cc(CC(=O)OCC(=O)Nc2ccc([N+](=O)[O-])cc2)cc(OC)c1OC — lower, -37.5%
- CC1Cc2ccccc2N1C(=O)c1cc2sccc2n1Cc1ccccc1 (stereo not drawn) — lower, 7.64%
- Cc1ccc(NC(=O)COC(=O)/C=C/c2cccs2)cc1 — lower, 8.77%
- O=C(CCn1c(=O)oc2ccccc21)Nc1ccon1 — lower, 3.95%
- Cc1cc(C)nc(SCC(=O)Nc2ccc(S(=O)(=O)Nc3onc(C)c3C)cc2)n1 — lower, 1.94%
- CCOC(=O)N1CCN(c2cc(=O)n(-c3ccc(OC)cc3)c(=O)[nH]2)CC1 — lower, 0.278%
- CCOc1cnc(-c2c(-c3ccccc3Cl)noc2C)o1 — lower, -3.56%
- O=S(=O)(NCc1ccccc1)NCc1ccc(Cl)cc1Cl — higher, 17.5%
- CCOc1cccc(OCCCCN2CCCCC2)c1 — lower, -38.1%
- CCC(Sc1ccc2nnc(-c3ccc(F)cc3)n2n1)C(=O)O (stereo not drawn) — lower, -1.97%
- CCOc1ccc(S(=O)(=O)N2CCCC(C(=O)NCc3ccncc3)C2)cc1Cl (stereo not drawn) — lower, -19.3%
- C#C[C@]1(O)CCC2C3CCC4=C/C(=N/OCC(=O)NC(C)C(=O)NC(CCSC)C(=O)O)CC[C@]4(C)C3CC[C@@]21C (stereo partly drawn) — higher, 24.2%
- COc1cc(C(=O)NCCCCCCNC(=O)c2cc(OC)c(OC)c(OC)c2)cc(OC)c1OC — higher, 20.3%
- O=C(N/N=C/c1ccco1)Nc1ccccc1 — lower, 1.3%
- Cl.Nc1ccn([C@H]2C[C@H](O)[C@@H](CO)O2)c(=O)n1 — higher, 12.2%
- Cc1occc1C(=O)N(Cc1nc(-c2ccccc2)no1)C(C)C — lower, -11.6%
- O=[N+]([O-])c1cc([As](=O)(O)c2ccc(O)c([N+](=O)[O-])c2)ccc1O — higher, 11.7%
- Cc1[nH]c2ccccc2c1SCc1nnc(SCc2ccccc2)n1C — lower, 4.6%
- CN(C(=O)c1ccccc1)c1ccccc1C(=O)NCCc1ccccc1 — lower, 8.03%
- CC1Cc2ccccc2N1C(=O)CSc1nn2c(=O)c(C(C)(C)C)nnc2s1 (stereo not drawn) — lower, 0.00368%
- Nc1cccc(CN2CCCC2)c1 — higher, 27.7%
- COc1cccc(C(=O)NC(=S)Nn2cnnc2)c1OC — lower, 9.4%
- O=C(CCCCl)NC(=S)Nc1ccc(N2CCOCC2)cc1 — lower, 7.94%
- CCOc1ccc(S(=O)(=O)N(CC(=O)NC2CCCCC2C)Cc2ccco2)cc1 (stereo not drawn) — lower, -38.9%
- CC1=NC2(CCCc3c2no[n+]3[O-])N(O)C1(C)C (stereo not drawn) — lower, 2.11%
- O=C(NCC(=O)N1CCCCCCC1)c1cccc([N+](=O)[O-])c1 — lower, 8.97%
- CSc1ncccc1C(=O)OCc1cccc([N+](=O)[O-])c1 — lower, -6.69%
- Cc1ccc(S(=O)(=O)c2c(C)nn(C(C)(C)C)c2OC(=O)c2cccs2)cc1 — lower, -19.7%
- O=c1nc(-c2ccccc2)n(-c2ccc(Cl)cc2)[nH]1 — higher, 12.3%
- Cc1nc2ccc(C(=O)O)cc2nc1C — higher, 34.7%
- CN1C(=O)CC(N2CCN(c3ncccn3)CC2)C1=O (stereo not drawn) — lower, 1.27%
- CCCn1c(N)c(C(=O)COC(=O)CCNS(=O)(=O)c2ccccc2F)c(=O)[nH]c1=O — lower, 10.3%
- CS(=O)(=O)N(CC(=O)N1CCCC1)c1ccc(OCc2ccccc2)cc1 — lower, -15.7%
- Cc1ccc(C)c(CSc2nnc([C@@H]3CCCN3)o2)c1.Cl — lower, 5.94%
- COc1ccc(N2C(=O)CSC2c2ccccc2)cc1 (stereo not drawn) — lower, 6.28%
- O=C(CC(Nc1ccccc1Cl)C(=O)O)c1ccccc1 (stereo not drawn) — higher, 10.8%
- Cc1cccc(CCNC(=O)C2CCCN(S(=O)(=O)c3cnc[nH]3)C2)c1 (stereo not drawn) — lower, 3.84%
- CC(C)(C)NC(=O)Cn1c(=O)oc2cc(S(=O)(=O)N3CCc4ccccc43)ccc21 — lower, 4.37%
- COc1ccc2oc(C(=O)NNC(=O)c3ccc(F)cc3)c(C)c2c1 — higher, 19.6%
- O=C(OCc1nnc(-c2ccccc2)o1)c1ccc(-n2cnnn2)cc1 — lower, -21.6%
- COc1ccccc1NNC(=O)c1cccnc1Oc1ccccc1 — lower, 5.64%
- O=C(Nc1c2c(nn1-c1ccccc1)CS(=O)C2)c1ccc(Br)o1 (stereo not drawn) — lower, 1.07%
